# Laboratory results as given in PubChem BioAssay AID1346428 (National Center for Advancing Translational Sciences (NCATS), 2018).
# Several values for one entry are separate records, joined by “and”; a condition that tells them apart may be missing. Equal entries are not always repeated. In all, about 48,000 compounds went through this assay and about 1,200 (2.5%) were called active. Roughly 2% stayed inconclusive and do not appear here.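 How the source made its calls: active means activation of at least 60% and not above a set upper limit (about 1 call in 100 departs from these limits); inconclusive means activation of 40% to 60%, or above that upper limit; inactive means activation under 40%.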 This is one part of the list.
# Target: Probable G-protein coupled receptor 32 (Homo sapiens) (UniProt O75388)
# Chain of UniProt O75388 (O75388 whole entry, looked up): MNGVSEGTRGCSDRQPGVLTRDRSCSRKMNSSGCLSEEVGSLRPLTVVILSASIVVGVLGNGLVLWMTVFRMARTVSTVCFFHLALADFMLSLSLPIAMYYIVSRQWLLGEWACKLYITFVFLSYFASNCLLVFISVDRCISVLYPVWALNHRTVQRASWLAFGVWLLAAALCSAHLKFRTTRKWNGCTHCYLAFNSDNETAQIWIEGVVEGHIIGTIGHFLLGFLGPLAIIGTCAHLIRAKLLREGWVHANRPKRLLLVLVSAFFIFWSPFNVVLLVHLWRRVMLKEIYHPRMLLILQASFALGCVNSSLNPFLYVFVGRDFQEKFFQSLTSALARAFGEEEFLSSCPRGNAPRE
# Experiment: qHTS for Agonists of Human Resolvin D1 Receptor DRV1
# Conditions: CHO-K1 GPR32 beta-arrestin PathHunter luminescence, 90 min; at 76.9 µM; stronger effect = higher value; zero percent set by DMSO-only wells
# Summary of the method: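 Beta-arrestin recruitment read-out: luminescence from complemented beta-Gal in CHO-K1 GPR32 PathHunter cells, measured 1 h after detection reagent at ambient temperature following 90 min compound exposure at 37 °C; DMSO served as basal (EC0) control.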
row,SMILES,activation
1,COc1cccc2c1[C@@H]1CN(CCCCn3c(=O)[nH]c4c(sc5ncc(-c6ccccc6)nc54)c3=O)C[C@@H]1CO2,inactive: -5.41%
2,Cc1cccc(NC(=O)CN2C(=O)COc3ccc(S(=O)(=O)N4CCC(C)CC4)cc32)c1C,inactive: -16.8%
3,CCN(CC)CCCNC(=O)c1nn(-c2ccc(OC)c(Cl)c2)c(=O)c2c1c1ccccc1n2C,inactive: 4.78%
4,CCOc1ccc(NC(=O)CCS(=O)(=O)c2ccc(Br)s2)cc1,inactive: 12.8%
5,COc1ccc(NC(=O)CSc2nnc3scc(-c4ccc(Cl)cc4)n23)cc1,inactive: -0.549%
6,CCOC(=O)c1c(C)c(-c2ccccc2)n(CC(=O)Nc2cccc(F)c2)c1C,inactive: 40%
7,COC(=O)c1sccc1S(=O)(=O)N(CC(=O)NCc1ccccc1)c1ccc(C)c(C)c1,inactive: -2.68%
8,Cn1nnnc1SCCNCc1ccc(OCc2ccccc2)cc1,inactive: 8.61%
9,O=C(Nc1noc2ccccc12)c1c(F)cccc1F,inactive: -5.49%
10,Cc1ccc(S(=O)(=O)N(CC(=O)N2CCc3ccccc3C2)c2ccc(C)c(C)c2)cc1,inactive: -9.67%
11,Cc1ccc(CNC(=O)Cn2c(=O)n(-c3ccc(C)c(F)c3)c(=O)c3sc4ccccc4c32)cc1,inactive: -4.11%
12,CCc1ccc(CNC(=O)C2CCCN(c3nn4cc(-c5ccc(F)cc5)nc4s3)C2)cc1 (stereo not drawn),inactive: -10%
13,O=C(Nc1cc(F)ccc1F)c1ccc2c(c1)nnn2C1CCCC1,inactive: 38.9%
14,CCOc1ccc(-c2nc3c(C#N)c[nH]n3c2NC2CCCCC2)cc1,inactive: -26.5%
15,Cc1cccc(-c2nc(CCNC(=O)c3ccccc3Br)cs2)c1,inactive: 2.96%
16,CCOC(=O)c1ccccc1NC(=O)N1CCCN(S(=O)(=O)c2ccc3c(ccn3CC)c2)CC1,inactive: -2.51%
17,Cc1nn(CC(=O)NCc2ccccc2Cl)c(=O)c2cccn12,inactive: 12.4%
18,CCCC(=O)Nc1cc(C(=O)NCc2ccc(OC)cc2)ccc1S(=O)(=O)c1ccc(Cl)cc1,inactive: -4.74%
19,CC1(C)CO[C@@H](CC(=O)O)CN1,inactive: -8.49%
20,CCOC(=O)C1CCN(C(=O)C2CCN(c3nnc(C)c4c(C)n(-c5ccccc5)nc34)CC2)CC1,inactive: -5.55%
21,COc1ccc(-c2cc(OC(=O)c3ccc(F)cc3)c3c(C)oc(C)c3c(=O)c2)cc1OC,inactive: -16.2%

row,SMILES,activation
1,CC(=O)Oc1ccc(C)cc1,inactive: -5.86%
2,COc1ccc(NC(=O)C2CCCN(S(=O)(=O)c3c(C)n[nH]c3C)C2)cc1OC (stereo not drawn),inactive: -0.588%
3,Cc1ccc(Cc2c(C)nn(-c3nc(C)c(C(=O)N4CCCCC4C)s3)c2C)cc1 (stereo not drawn),inactive: -1.8%
4,COc1ccc(-c2noc(CSc3nnc(-c4ccccc4)n3-c3ccc(F)cc3)n2)c(OC)c1,inactive: -12.5%
5,Cc1cccc(NC(=O)CN2c3ccccc3S(=O)(=O)c3ccccc32)c1C,inactive: 7.64%
6,CCc1nn(CC(=O)NCc2ccc(OC)cc2OC)c(=O)c2cc3c(OC)cccc3n12,inactive: 6.03%
7,CCC(=O)N1CCc2cc(S(=O)(=O)NC(C(=O)NCCc3ccc(Cl)cc3)C(C)C)ccc21 (stereo not drawn),inactive: -3.97%
8,COc1ccc(N2CCN(C(=O)c3ccc(NC(=O)c4nsc5ccccc45)cc3)CC2)cc1,inactive: -21.7%
9,O=C(/C=C\c1ccc2c(c1)OCO2)NC1CC(=O)N(c2ccc(F)cc2)C1 (stereo not drawn),inactive: 2.01%
10,Oc1cccc(-c2c3nc(c(-c4cccc(O)c4)c4ccc([nH]4)c(-c4cccc(O)c4)c4nc(c(-c5cccc(O)c5)c5ccc2[nH]5)CC4)C=C3)c1,inactive: -15.4%
11,CCOCCCNC(=O)c1cc2c(=O)n3ccccc3nc2s1,inactive: -3.11%
12,Cc1ccc(C)c(N2CCN(C(=O)c3cc4cc5ccc(C)cc5nc4s3)CC2)c1,inactive: -5.45%
13,CC(C)(C)c1ccc(C(=O)Nc2cc(-c3ccccc3)nn2-c2ccccc2)cc1,inactive: -9.18%
14,Cc1ccc(CNc2nc3c(S(=O)(=O)c4ccc(C)c(C)c4)nnn3c3ccc(Cl)cc23)cc1,inactive: -6.01%
15,Cc1ccc(CNC(=O)CCn2ccc3cc(S(=O)(=O)N4CCCC4)ccc32)cc1,inactive: -14.4%
16,Cc1ccc(CSc2oc(-c3ccco3)nc2S(=O)(=O)c2ccc(Br)cc2)cc1,inactive: -13.1%
17,CC1CCN(C(=O)CSc2nc3c([nH]c4ccccc43)c(=O)n2-c2ccccc2)CC1,inactive: -12.3%
18,O=C(CN1CCN(c2ccc(Cl)cc2)CC1)Nc1ccc(Cl)c(C(F)(F)F)c1,inactive: 16.4%
19,CCOc1ccc(-n2c(=O)c3c4c(sc3n(Cc3cc(=O)n5cc(Cl)ccc5n3)c2=O)CCC4)cc1,inactive: -2.03%
20,CCc1ccc(NC(=O)Cn2c(=O)n(Cc3nc(C)no3)c(=O)c3cc4c(cc32)OCO4)cc1,inactive: -17.8%
21,COc1ccccc1NC(=O)CSc1nnc(-c2nonc2NC(C)=O)n1-c1ccccc1,inactive: -18%

row,SMILES,activation
1,CCN(c1ccccc1)S(=O)(=O)c1ccc(NC(=O)c2cc(=O)c3ccc(C)c(C)c3o2)cc1,inactive: -4.07%
2,Cc1ccc2c(CC(=O)Nc3c(C(=O)c4ccc(F)cc4)oc4ccccc34)coc2c1,inactive: -11.9%
3,COc1ccc(-c2nc3c(c(SCc4cc(C)ccc4C)n2)Cc2c(CO)cnc(C)c2O3)cc1,inactive: 8.25%
4,COc1ccc(N2CCN(C(=O)c3nn(C)c4c3CS(=O)(=O)c3ccccc3-4)CC2)cc1,inactive: 13.2%
5,CCC(=O)OCc1cnc(C)c2oc(=O)c(C(=O)Nc3ccc(CC)cc3)cc12,inactive: -11.2%
6,CC(NC(=O)C1CCN(C(=O)N2CCOc3ccc(Cl)cc32)CC1)c1ccccc1 (stereo not drawn),inactive: -14.2%
7,Cn1cc(C(=O)[C@@H]2CCc3nc[nH]c3C2)c2ccccc21,inactive: 5.91%
8,O=C(CCSCc1ccc(Cl)cc1)N1CCN(c2ccccc2F)CC1,inactive: -25.2%
9,COc1ccc(CCNC(=O)CS(=O)Cc2nc(-c3ccc(C)cc3)oc2C)cc1OC (stereo not drawn),inactive: -15.2%
10,NC(=O)c1cc(S(=O)(=O)NCc2ccc(Br)cc2)cs1,inactive: 5.24%
11,COc1ccccc1Nc1nn2c(=O)c3ccc(C(=O)Nc4ccc(F)cc4)cc3nc2s1,inactive: 9.21%
12,CCCN(CCC)CCNC(=O)Cn1ncc2c([nH]c3ccc(C)cc32)c1=O,inactive: -9.83%
13,Cc1cccc(C(=O)O)c1O,inactive: -46.1%
14,CCOc1ccc2oc(=O)cc(CN3CCN(C(=O)c4cccc(F)c4)CC3)c2c1,inactive: -12.6%
15,CCOC(=O)c1[nH]c(C)c(CCC(=O)NCc2ccc(C)cc2)c1C,inactive: -11.6%
16,CCc1cccc(-n2c(=O)c3cccnc3n2CC(=O)NCc2ccccc2Cl)c1,inactive: -16.4%
17,CCOC(=O)c1ccc(NC(=O)CCc2c(C)n(CC)c3cc(-c4ccccc4OC)nn3c2=O)cc1,inactive: -10.7%
18,Cc1ccccc1NC(=O)Cn1nnc(C(=O)NCc2cccs2)c1N,inactive: -2.47%
19,Cc1ccc(NC(=O)CCc2c(C)nc3ncnn3c2C)cc1Cl,inactive: 3.28%
20,Cc1cccc(NC(=O)CN2C(=O)CC(c3ccccc3)Sc3ccccc32)c1 (stereo not drawn),inactive: -18.3%
21,CCc1ccc(NC(=O)Cn2nnc(C(=O)Nc3ccc(F)cc3)c2N)cc1,inactive: -1.95%

row,SMILES,activation
1,CC(CNC(=O)c1csc2c1CCCCC2)c1ccccc1 (stereo not drawn),inactive: -7.72%
2,Cc1ccc(CSc2nc3cc(C(=O)NC4CCCC4)ccc3c(=O)n2Cc2ccccc2)cc1,inactive: -17.6%
3,CCc1ccc(NS(=O)(=O)c2ccc(NC(=O)N3CCCC3)cc2)cc1,active: 68.7%
4,COc1ccc(CCN2C(=O)N(c3ccc(C)cc3)C(=O)C2CC(=O)Nc2ccc(OC)cc2)cc1 (stereo not drawn),inactive: -1.64%
5,O=C(NCc1cccc(Cl)c1)c1ccc2c(Cl)c3c(nc2c1)CCCC3,inactive: -7.09%
6,CCOC(=O)C1CCCN(C(=O)Cn2ncc3c4ccccc4n(C)c3c2=O)C1 (stereo not drawn),inactive: -2.56%
7,COc1cc(NC(=O)c2cc(S(=O)(=O)N3CCC(C)CC3)cn2C)cc(OC)c1OC,inactive: -3.33%
8,O=C(CSc1ncc(CO)n1Cc1ccc(F)cc1)NCc1ccco1,inactive: 7.63%
9,COc1cc(O)ccc1-c1nc2cc(C)ccn2c1Nc1ccccc1C,inactive: 8.02%
10,O=C(Nc1cccc(F)c1)C1CCN(S(=O)(=O)c2ccc3[nH]c4c(c3c2)CCCCC4)CC1,inactive: 9.43%
11,COc1ccc(NC(=O)CSc2nc3nc(C)cc(C)n3n2)cc1OC,inactive: 3.78%
12,Cc1cccc2c(=O)cc(CSc3ccccc3NC(=O)c3cccc(Br)c3)[nH]c12,inactive: -1.52%
13,CCc1ccc(S(=O)(=O)Nc2cccc(-c3ccc(OC)nn3)c2)s1,inactive: 9.06%
14,Fc1ccc(C(c2ccc(F)cc2)N2CCN(C/C=C/c3ccccc3)CC2)cc1,inactive: 40.2% and inactive: -11.9%
15,CCOc1ccccc1NC(=O)NCc1noc2ccc(C)cc12,inactive: -10.8%
16,COC(=O)C1=C(C)NC(C)=C(C(=O)OCC(C)=O)C1c1ccccc1[N+](=O)[O-] (stereo not drawn),inactive: -7.97%
17,O=c1n(Cc2ccc(Cl)cc2)nc2n1-c1ccccc1OC2,inactive: 16.5%
18,COc1cccc(NC(=O)c2sc3nc(C)c(C(=O)Nc4ccc(C)cc4C)c(-c4ccc(C)o4)c3c2N)c1,inactive: -16%
19,CCC1CCCCN1CCCNC(=O)c1c(C)oc2ncn(CC(C)C)c(=O)c12 (stereo not drawn),inactive: -8.9%
20,COc1cccc2c1cc1c(=O)n(CC(=O)NCc3ccc(N(C)C)cc3)nc(C)n12,inactive: -9.41%
